Test results reported in US20240254259A1 (NATIONAL RESEARCH COUNCIL CANADA, published 2024).

B1: sdABP07-Fc (VHH fused to human IgG1 hinge-Fc) (Fc fusion)
chain: EVQLVESGGGLVEYGGSLRLSCAASESTLDNYAIAWFRQAPGKEREVVSCVGKSGGRSDYADSVKGRFTISRDNAKNTVYLQMNSLKPEDTAVYSCAARRVWFGGCVLGTSQGQYDYWGQGTQVTVSSA[not shown - human IgG1 Fc]
notes: Bivalent VHH-Fc, human IgG1 hinge/Fc, made in HEK293-6E cells; also called sdABP07 VHH-Fc
B2: sdABP03-Fc (VHH fused to human IgG1 hinge-Fc) (Fc fusion)
chain: EVQLVESGGGLVQPGGSLRLSCATSEFTLDYYAIGWFRQAPGKEREGVSCISSSGGTTNYADSVKGRFTISSDNAKNTVSLQMNSLRPEDTAVYYCAAARVSAYYLGNYGCLNAEYGYWGQGTQVTVSSA[not shown - human IgG1 Fc]
notes: Bivalent VHH-Fc, human IgG1 hinge/Fc, made in HEK293-6E cells; also called sdABP03 VHH-Fc
B3: sdABP05-Fc (VHH fused to human IgG1 hinge-Fc) (Fc fusion)
chain: EVQLVESGGGLVQPGGSLRLSCAASGFTFSTYAMTWVRKAPGKGFEWISSIDSGGGVTLYADSVKGRFTISKDNAKNTLYLQMNNLKPDDTAVYYCVKNYGSTSLQSRGQGTQVTVSSA[not shown - human IgG1 Fc]
notes: Bivalent VHH-Fc, human IgG1 hinge/Fc, made in HEK293-6E cells; also called sdABP05 VHH-Fc
B4: sdABP06-Fc (VHH fused to human IgG1 hinge-Fc) (Fc fusion)
chain: EVQLVDSGGGLVQPGGSLRLSCAASGFTFSNYDMSWVRQGPGKGPEWVSIISYVGGLTRYSDSVKGRFTISRDNAKNTLYLQMNSLNTEDTALYYCARVKSMHPTSTTGEYDYRGRGTQVTVSSA[not shown - human IgG1 Fc]
notes: Bivalent VHH-Fc, human IgG1 hinge/Fc, made in HEK293-6E cells; also called sdABP06 VHH-Fc
B5: sdABP08-Fc (VHH fused to human IgG1 hinge-Fc) (Fc fusion)
chain: EVQLVSSGGGLVQPGGSLRLSCKASRFTLERYTIGWFRQAPGKEREGIACISSSGGDTNYADSVKGRFTISRDNVVEKVYLQMDSLKPEDTAVYYCAARTYACDYKSRWLTYEFRGQGTQVTVSSA[not shown - human IgG1 Fc]
notes: Bivalent VHH-Fc, human IgG1 hinge/Fc, made in HEK293-6E cells; also called sdABP08 VHH-Fc
B6: sdABP09-Fc (VHH fused to human IgG1 hinge-Fc) (Fc fusion)
chain: QVQLVESGGGLVQPGGSLRLSCAASGFTFSSYGMTWVRQAPGKGFEWVSTISISGSRTTYAGSVKDRFTISRDNAKNTLYLQMNSLKPEDTAVYYCRNILVQGQGTQVTVSSA[not shown - human IgG1 Fc]
notes: Bivalent VHH-Fc, human IgG1 hinge/Fc, made in HEK293-6E cells; also called sdABP09 VHH-Fc

target: T1, full length human DPEP-1 displayed on HEK293T / HEK293-6E cells (human, UniProt P16444 17-385); assay: flow cytometry EC50 on human DPEP-1-expressing cells, VHH-Fc against its monomeric VHH
T1 construct: whole, on cells; GPI-anchored on the cell surface; also called hDPEP-1
T1 sequence (looked up): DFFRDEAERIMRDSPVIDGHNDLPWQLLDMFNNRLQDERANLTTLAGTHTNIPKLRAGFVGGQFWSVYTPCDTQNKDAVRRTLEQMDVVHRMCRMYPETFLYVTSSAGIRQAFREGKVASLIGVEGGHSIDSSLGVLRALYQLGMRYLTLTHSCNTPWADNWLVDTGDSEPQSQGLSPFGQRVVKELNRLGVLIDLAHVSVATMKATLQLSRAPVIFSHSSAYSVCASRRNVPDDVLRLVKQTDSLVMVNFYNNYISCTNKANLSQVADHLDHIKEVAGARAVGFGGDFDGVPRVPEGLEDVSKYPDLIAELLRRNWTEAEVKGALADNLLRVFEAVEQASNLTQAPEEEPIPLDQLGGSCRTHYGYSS

In order of rising “Fold improvement (EC50 of VHH against EC50 of VHH-Fc)” value:
1. B4  1.6 fold
2. B3  9 fold
3. B1  16.7 fold
4. B2  611 fold

target: T1, full length human DPEP-1 displayed on …; assay: flow cytometry, VHH-Fc titrated on HEK293-6E cells expressing human DPEP-1; apparent EC50
Method: None of the VHH-Fcs bound to parental, non-DPEP-1-expressing HEK293-6E cells at 125 nM (see FIG. 8E). […] Measurements were in triplicate.
(§1) Transient transfection of HEK293-6E cells were carried out with 100 μg pcDNA3.1 expression plasmid encoding full length human DPEP-1, mouse DPEP-1, rat DPEP-1 or human DPEP-2 combined with 100 μg of PEIpro®, DNA transfection reagent (VWR, Cat #71002-812). Cell surface expression of DPEP-1 or DPEP-2 (DPEP-1/2) were carried out for 96 h. To assess cell binding of VHH-Fcs by flow cytometry, DPEP-1/2 expressing cells were harvested and washed once by PBS centrifugation, and resuspended at 1× 10⁶ cells/mL in PBSB (PBS containing 1% [w/v] BSA) and 0.05% [w/v] sodium azide [SIGMA, Cat #S2002]). Fifty μL of individual DPEP-expressing cells were incubated with 50 μL of VHH-Fcs (250 nM) for 1 h on ice. Subsequently, cells were washed twice with PBSB by centrifugation for 5 min at 1200 rpm, and then incubated for an additional hour on ice with 50 μL of R-Phycoerythrin-conjugated AffiniPure Fab Fragment Goat Anti-Human IgG, Fc Fragment Specific (Jackson Immunoresearch, Cat #109-117-008) at 2 μg/mL diluted in PBSB. After a final wash, cells were resuspended in 100 μL PBSB and data were acquired on a CytoFLEX S flow cytometer (Beckman Coulter) and analyzed by FlowJo software (FlowJo LLC, v10.6.2, Ashland). The binding of the anti-human DPEP-1 rabbit pAb (Proteintech, Cat #12222-1-AP) positive control was detected using goat anti-rabbit IgG antibody conjugated to R-phycoerythrin (Thermo Fisher, Cat #P-2771MP).
Flow cytometry experiments performed with variable concentrations of VHH-Fcs against human and mouse DPEP-1-expressing HEK293-6E cells allowed determination of apparent EC₅₀s. Affinities against human DPEP-1-expressing HEK293-6E cells were determined to be high (low EC₅₀s; range: 0.6-1.8 nM; median: 0.9 nM) (FIG. 9; Table 7).

In order of rising EC50:
1. B3  0.6 nM
2. B4  0.6 nM
3. B5  0.7 nM
4. B1  0.9 nM
5. B6  0.9 nM
6. B2  0.9 nM

target: T1, full length human DPEP-1 displayed on …; assay: flow cytometry on human DPEP-1-expressing HEK293-6E cells, VHH-Fc (Table 8 restating Table 7)

In order of rising EC50:
1. B3  0.6 nM
2. B4  0.6 nM
3. B5  0.7 nM
4. B1  0.9 nM
5. B6  0.9 nM
6. B2  0.9 nM

target: T1, full length human DPEP-1 displayed on …; assay: flow cytometry, VHH-Fc titrated on HEK293-6E cells expressing human DPEP-1; apparent EC50 (FIG. 10)

B4 was tested, and the EC50 was 0.8 nM.

target: T2, full length mouse DPEP-1 on HEK293-6E cells (mouse, UniProt P31428 17-384); assay: flow cytometry, VHH-Fc titrated on HEK293-6E cells expressing mouse DPEP-1; apparent EC50 (FIG. 10)
T2 construct: whole, on cells
T2 sequence (looked up): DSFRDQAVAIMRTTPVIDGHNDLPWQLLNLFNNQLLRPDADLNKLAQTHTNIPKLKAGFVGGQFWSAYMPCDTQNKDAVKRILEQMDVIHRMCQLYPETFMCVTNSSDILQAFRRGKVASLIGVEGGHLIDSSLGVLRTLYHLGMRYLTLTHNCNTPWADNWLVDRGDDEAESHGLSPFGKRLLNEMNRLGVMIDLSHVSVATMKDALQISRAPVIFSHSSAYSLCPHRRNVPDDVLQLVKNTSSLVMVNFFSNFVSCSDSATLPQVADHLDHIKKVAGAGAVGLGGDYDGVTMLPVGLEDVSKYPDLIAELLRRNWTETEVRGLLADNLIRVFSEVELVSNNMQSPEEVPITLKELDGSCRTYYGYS
Method: Measurements were in duplicate.
as §1, with “Subsequently, cells were washed twice with PBSB by centrifugation for 5 min at 1200 rpm, and then incubated for an additional hour on ice with 50 μL of R-Phycoerythrin-conjugated AffiniPure Fab Fragment Goat Anti-Human IgG, Fc Fragment Specific (Jackson Immunoresearch, Cat #109-117-008) at 2 μg/mL diluted in PBSB.” left out

In order of falling EC50:
1. B3  3.9 nM
2. B4  2.8 nM
